Laboratory results as given in ChEMBL document CHEMBL1201862, “PubChem BioAssay data set” (2004).
Several values for one entry are separate records, joined by “and”; a condition that tells them apart may be missing. Equal entries are not always repeated.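 1) Cells in 96-well plates. 2) Compound, 48 h, 5 concentrations. 3) Linear interpolation between surrounding doses. 4) Unreached endpoint = highest concentration. GI50 is the concentration that inhibits growth by half.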 Activity calls are given as the source filed them. Rule as the data show it: active = GI50 up to about 1.1 µM and inactive = higher.

Tested on: NCI-H322M
Experiment: NCI anticancer screen, dose series, 48 h

| Compound | GI50 |
| --- | --- |
| Cc1cc(O)c(C(C)C)cc1NC(=O)Nc1cccc2ccccc12 | inactive: 15.5 µM |
| O=c1c2ccccc2sc2c(CO)ccc(NCCN3CCCCC3)c12 | inactive: 3.27 µM |
| Cc1ccc2c(C)c3ccc4ccccc4c3c[n+]2c1.[O-][Cl+3]([O-])([O-])[O-] | inactive: 13.9 µM |
| CCCCCCCCCC(=O)OCC1OC(n2cc(F)c(=O)[nH]c2=O)C(NC(=O)OCc2ccccc2)C(OC(=O)CCCCCCCCC)C1O (centres undefined) | inactive: 56.6 µM |
| COC(=O)C(C)(C)/N=C/N(C)C | inactive: > 100 µM |
| CCN(CC)C(=S)N/N=C(\C)c1ccccc1O | inactive: 40.4 µM |
| CCCN(CCC)c1c([N+](=O)[O-])cc(C(=O)N(CCO)CCO)cc1[N+](=O)[O-] | inactive: > 100 µM |
| CCOC(=O)CNC(=O)N(CC)C12CC3CC(CC(C3)C1)C2 | inactive: 171 µM |
| O=C1C=C(NCC(c2ccccc2)c2ccccc2)C(=O)c2ncccc21 | inactive: 1.69 µM |
| Cc1cc2[nH]c3c(C#N)c(-c4ccccc4)c(/N=N/c4ccc(F)cc4)c(=O)n3c2cc1C | inactive: > 100 µM |
| C/C(=N/CC(=O)O)c1ccccc1 | inactive: > 100 µM |
| CCOC(=O)CN1C(=O)c2cc([N+](=O)[O-])cc3cc([N+](=O)[O-])cc(c23)C1=O | inactive: > 100 µM |
| Cc1ccc(C)c(NC(=O)C(=O)CC(=O)c2cccc3ccccc23)c1 | inactive: > 100 µM |
| NC(=O)N/N=C1\CCCCc2ccccc21 | inactive: > 10 µM |
| CC(C)OCN1COCN/C1=N/C#N | inactive: > 100 µM |
| COc1ccc2nc(-c3ccccc3)cc(OCC(=O)O)c2c1 | inactive: > 100 µM |
| Cc1c(/N=N/c2ccc(Cl)cc2)c(C)n(C2OC(CO)C(O)C(O)C2O)c(=S)c1C#N (centres undefined) | inactive: 37.6 µM |
| COc1cc(C2=N/C(=C/c3cccs3)C(=O)O2)cc(OC)c1OC | inactive: > 100 µM |
| [N-]=[N+]=NC1OC(=O)C(Cl)=C1N=P(c1ccccc1)(c1ccccc1)c1ccccc1 (centres undefined) | inactive: > 10 µM |
| O=C1c2ccccc2CC12CCC1(CC2)OCCO1 | inactive: > 100 µM |
| NS(=O)(=O)c1ccc(NC(=O)c2cccc3c(=O)c4ccccc4[nH]c23)cc1 | inactive: 54.6 µM |
| O=C(O)/C=C/n1c2ccccc2c(=O)c2ccccc21 | inactive: > 100 µM |
| Cc1cn([C@H]2C[C@@H](N3C(=O)c4ccccc4C3=O)[C@@H](CO[Si](C)(C)C(C)(C)C)O2)c(=O)[nH]c1=O | inactive: > 100 µM |
| Cc1ccc(NC(=O)C(=O)C2C(=O)C3=C(CC2(C)C)NC2C=CC=CC2S3)c(C)c1 (centres undefined) | inactive: > 100 µM |

| Compound | GI50 |
| --- | --- |
| O=[N+]([O-])C1(CO)COC(CCc2ccccc2)OC1 (centres undefined) | inactive: > 100 µM |
| Oc1cc(CN2CCOCCOCCOCCOCC2)c(O)cc1CN1CCOCCOCCOCCOCC1 | inactive: > 100 µM |
| N/N=C1/CCCc2nonc21 | inactive: > 100 µM |
| C#CCCCC(=C)C[C@@H]1OC(=O)[C@H](C)[C@@H]1O | inactive: > 100 µM |
| CC1C2CC(C/C2=N/O)C1(C)C (centres undefined) | inactive: > 100 µM |
| N=C(N)SC1c2ccccc2-c2cc([N+](=O)[O-])ccc21 (centres undefined) | inactive: 4.43 µM |
| O=C(NNC(=S)Nc1ccccc1)c1ccccc1Nc1ccccc1C(=O)NNC(=S)Nc1ccccc1 | inactive: 21.5 µM |
| O=C1CC2SC(COCc3ccccc3)(CCN2Cc2ccccc2)C1 (centres undefined) | inactive: 47.2 µM |
| N/N=c1\c2ccccc2c2cc3c(cc12)/c(=N/N)c1ccccc13 | inactive: > 100 µM |
| CC1(Br)C(=O)NC(=O)N(C2CC(N=[N+]=[N-])C(CO)O2)C1N=[N+]=[N-] (centres undefined) | inactive: > 100 µM |
| CCCCCCCCCCCCCC(=O)N(CCCCCCCCC)CC(O)C(O)C(OC1OC(CO)C(O)C(O)C1O)C(O)CO (centres undefined) | inactive: 17 µM |
| O=[N+]([O-])/C=C/c1ccc(Cl)cc1Cl | inactive: 16.4 µM |
| CC(=O)Nc1ccc(C2CC(c3ccc([N+](=O)[O-])cc3)=Nc3ccccc3S2)cc1 (centres undefined) | inactive: 34.2 µM |
| C/C(=C\CBr)CCC(Br)C(C)(C)Br (centres undefined) | inactive: > 100 µM |
| Cc1nn(C(=O)c2ccccc2O)c2c1C(c1ccc3ccccc3c1O)SC(=N)N2 (centres undefined) | inactive: 7.78 µM |
| Cc1cccc2c1CC(Cc1ccccc1C(=O)O)C2=O (centres undefined) | inactive: > 100 µM |
| CC1C2(C)OC(=N)C(C#N)(C(c3ccccc3)O2)C1(C#N)C#N (centres undefined) | inactive: 72.1 µM |
| COC(=O)c1csc(-c2nc(CCNC(=O)OC(C)(C)C)sc2Br)n1 | inactive: > 100 µM |
| CC(=O)NC1C(OCc2ccccc2)OC(COC(=O)CCCCCCCCCCNC(=O)c2cccc3c(=O)c4ccccc4[nH]c23)C(O)C1OC(C)C(=O)NC(C)C(=O)NC(CCC(N)=O)C(N)=O (centres undefined) | inactive: > 100 µM |
| CCOP(=O)(OCC)Oc1c(OC)c2[nH]c(C(=O)OC)cc2c2c(C(=O)O)c[nH]c12 | inactive: > 100 µM |
| C/C(=N\NC(=S)NC1CCCC1)c1ccccn1 | active: < 0.02 µM |
| CC(=O)OCC1OC(n2c(N)c(C#N)c(C)c(C#N)c2=S)C(OC(C)=O)C(OC(C)=O)C1OC(C)=O (centres undefined) | inactive: > 100 µM |
| COc1ccc(/C=C/C(=O)c2c(-c3ccccc3)nn(C)c(=O)c2N2CC2C)cc1 (centres undefined) | inactive: 34.4 µM |
| CC(=O)Oc1cc(OC(C)=O)c2c(c1C)CC[C@@H]1[C@@H]2CC[C@]2(C)[C@@H](OC(C)=O)CC[C@@H]12 | inactive: 16.8 µM |

| Compound | GI50 |
| --- | --- |
| O=C1[C@H]2ON(c3ccccc3)C(c3ccco3)[C@H]2C(=O)N1c1ccc(Cc2ccc(N3C(=O)[C@@H]4ON(c5ccccc5)C(c5ccco5)[C@@H]4C3=O)cc2)cc1 (some centres undefined) | inactive: > 100 µM |
| O=C1CCCCC1CN1CCCCC1 (centres undefined) | inactive: > 100 µM |
| NC(CCCC(N)P(=O)(O)O)C(=O)O (centres undefined) | inactive: > 100 µM |
| Cc1cn(C2CC(n3cc(Cn4cc(I)c(=O)[nH]c4=O)nn3)C(CO)O2)c(=O)[nH]c1=O (centres undefined) | inactive: > 100 µM |
| CC1(C)OCC=CCO1 | inactive: > 100 µM |
| CCCN(CCc1ccc(-c2ccccc2)cc1)CCc1ccc2nn[nH]c2c1 | inactive: 11.6 µM |
| COc1cccc(NCC(=O)Nn2c(-c3ccccc3)nc3ccccc3c2=O)c1 | inactive: > 100 µM |
| OCC(O)C(O)C(O)C(/C=N\Nc1ncnc2c(Br)cc(Br)cc12)=N/Nc1ncnc2c(Br)cc(Br)cc12 (centres undefined) | inactive: 5.61 µM and inactive: 4.38 µM |
| O=C(O)Cc1ccc(/N=N/c2c(O)c(C(=O)O)cc3ccccc23)cc1 | inactive: > 100 µM |
| CC(=O)C(=[N+]=[N-])C(=O)OC(C)(C)C#N | inactive: > 10 µM |
| CN1CCc2cc3c4cc2C1Cc1ccc(cc1)Oc1cc(ccc1O)CC1c2c(cc(O)c(c2O4)O3)CCN1C (centres undefined) | inactive: 2.26 µM |
| O=C(O)c1cccc(S(=O)(=O)NN2C(=O)CSC2c2ccccc2Cl)c1 (centres undefined) | inactive: > 100 µM |
| CCOC(=O)c1[nH]c2cccc3c2c1CC(Br)C3=O (centres undefined) | inactive: 10.1 µM |
| COc1ccc(C(=O)Nc2ccc(S(=O)(=O)NCC(=O)O)cc2)cc1 | inactive: > 100 µM |
| COc1ccc(Br)c(/C=N\c2cccc3cc(OC)c(OC)cc23)c1 | inactive: 75 µM |
| CC(=O)Nc1ccc2c(c1)[nH]c(=O)c1cc(Cl)ccc12 | inactive: 23 µM |
| Clc1cc(OC23CC4CC(CC(C4)C2)C3)nc(Cl)n1 | inactive: 50.7 µM |
| CN(C)/C=C/c1nnc([N+](=O)[O-])s1 | inactive: 22.8 µM |
| CC(=O)Nc1ccc(N2C(=O)/C(=C\c3cccc(Oc4ccccc4)c3)S(=O)(=O)C2c2ccccc2)cc1 (centres undefined) | inactive: > 100 µM |
| CCCNC(=O)Cn1c(C)cc2ccccc21 | inactive: > 100 µM |
| NC1(C(=O)O)CCCC1C(=O)O (centres undefined) | inactive: > 100 µM |
| O=S(=O)(O)c1cc(/N=N/c2c(O)ccc3ccccc23)cc2c(S(=O)(=O)O)cccc12 | inactive: > 100 µM |
| Cc1cn(C2CC(Br)C(COC(c3ccccc3)(c3ccccc3)c3ccccc3)O2)c(=O)[nH]c1=O (centres undefined) | inactive: 14.1 µM |
| [N-]=[N+]=NC1=C(c2ccccc2)C(=O)c2cccc3cccc1c23 | inactive: 18.9 µM |

| Compound | GI50 |
| --- | --- |
| O=[N+]([O-])c1cccc2c1[nH]c1c(-c3ccccc3)nccc12 | inactive: 2.21 µM |
| Cc1nc2ccccc2c(-n2cccn2)c1CCn1cccn1 | inactive: > 100 µM |
| CC(=N\N=C\c1ccccn1)/C(C)=N/N=C(C)/C(C)=N/N=C/c1ccccn1 | inactive: > 100 µM |
| COC1CC(n2cnc3c(N)ncnc32)OC1CO (centres undefined) | inactive: > 100 µM |
| CCOC(=O)C(C(=O)c1ccccc1)=C1NCCN1 | inactive: > 100 µM |
| COc1nc(O)nc2c1C(c1ccc([N+](=O)[O-])cc1)c1c(OC)nc(O)nc1O2 | inactive: > 100 µM |
| CC(C)OC(=O)NNc1cc(Cl)ccc1Cl | inactive: 36.2 µM |
| O=C1c2ccccc2N2OC3C4CCC(C4)C3C12c1ccccc1 (centres undefined) | inactive: > 100 µM |
| O=C1CCC2(c3ccc(Cl)cc3)Nc3ccncc3N12 (centres undefined) | inactive: > 10 µM |
| COS(=O)(=O)OCCC(NC(=O)OCc1ccccc1)C(=O)OCc1ccccc1 (centres undefined) | inactive: > 100 µM |
| Nc1nc2c(ncn2CC(CO)CC(c2ccccc2)P(=O)(O)O)c(=O)[nH]1 (centres undefined) | inactive: > 100 µM |
| O=C(O)c1ccccc1CC(Cc1ccccc1)C(=O)O (centres undefined) | inactive: > 100 µM |
| O=C(O)CC(NC(=O)CP(=O)(O)O)C(=O)O (centres undefined) | inactive: 6950 µM |
| O=S(O)CCCCSSCc1ccccc1CSSCCCCS(=O)O | inactive: 36.7 µM |
| N=C(N)Nc1nc2cc([N+](=O)[O-])ccc2[nH]1 | inactive: 73.1 µM |
| O=c1c(C(c2ccc(O)cc2)c2c(O)oc3ccccc3c2=O)c(O)oc2ccccc12 | inactive: > 100 µM |
| COc1cc2c(cc1C)NC(=O)/C2=C/c1c(Cl)n(-c2ccccc2)c2ccccc12 | inactive: 34.4 µM |
| CCCCCCCCCCCCCCCCCCCCCCC(=O)N[C@H]1CCc2cc(OC)c(OC)c(OC)c2-c2ccc(SC)c(=O)cc21 | inactive: 54 µM |
| O=[N+]([O-])c1ccccc1S(=O)(=O)c1ccccc1[N+](=O)[O-] | inactive: > 100 µM |
| CCN(CC)CCCC(C)NC(=O)c1ccc2c(c1)C(=O)c1ccccc1C2=O (centres undefined) | inactive: 20.8 µM |
| Cc1cc(C)c2c(O)cc(-c3ccc(Cl)cc3)nc2n1 | inactive: 48.8 µM |
| CC(C)(C)c1ccc(-c2nc3ccccc3c(=O)o2)cc1 | inactive: > 100 µM |
